# Reference: PubChem BioAssay AID1347073 (National Center for Advancing Translational Sciences (NCATS), 2019)
# Among all 45,000 compounds or so, about 200 (0.44%) were called active. Not shown: some 7% with an inconclusive outcome. Calls come from the whole dose curve; as a rule, active = well fitted activation curve with a large enough effect; inconclusive = small, poorly fitted or top-dose-only effect; inactive = no such curve, though single readings can be large or run the other way. The list shows a part of the results.
# Assay: qHTS of TDP-43 Inhibitors: NCGC Sytravon Library Screen; note: 0% is about no effect; nearly all actives have a fitted effect of over 55% in size
# Settings: yeast TDP-43 toxicity rescue, BacTiter-Glo growth, 24 h; series mostly up to 46.1 µM; growth rescue (activation): at the top concentration
# How it was run: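 TDP-43-expressing yeast, pregrown in raffinose, seeded at OD600 0.02 in galactose medium with compound for 24 hr at 30 deg C. Growth read by BacTiter-Glo luminescence, so rescue of toxicity appears as activation.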
row,SMILES,growth rescue (activation)
1,Cc1sc2ncn(CC(=O)NCCCN3CCC(C)CC3)c(=O)c2c1S(=O)(=O)N1CCC(C)CC1,inactive: 11.6%
2,O=C(O)CN1C(=O)/C(=C\c2ccc(OC(=O)c3ccco3)cc2)SC1=S,inactive: 10.5%
3,O=C(O)CNc1ccc(S(=O)(=O)C(F)(F)F)cc1[N+](=O)[O-],inactive: -36.9%
4,Cc1cc(C)nc(N/N=C/C=C/c2ccccc2)n1,inactive: 27.7%
5,CCc1ccc(CN(C)C(=O)C2CCC(=O)N(CCCN3CCCC3=O)C2)cc1 (configuration not stated),inactive: 6.4%
6,O=C1CN(C(=O)CSc2nc(-c3ccccc3)cs2)c2ccccc2N1,inactive: 9.69%
7,Cc1ccc(C(=O)NCCNC(=O)COc2ccc(Cl)cc2)cn1,inactive: -4.13%
8,Cc1ccc(O)c(NC(=O)C2CC(c3cccc(Br)c3)=NO2)c1 (configuration not stated),inactive: 8.08%
9,O=C(CNc1cccc2ccccc12)c1ccc([N+](=O)[O-])cc1,inactive: 19.4%
10,CCc1nnc(NC(=O)CS(=O)(=O)Cc2ccccc2)s1,inactive: 11.9%
11,COCCCNC(=O)C(=O)NC1CCCCCC1,inactive: -5.14%
12,O=C(O)c1ccccc1-c1ccccc1C(=O)NNc1ccc([N+](=O)[O-])cc1,inactive: 4.18%
13,Cc1ccc2occ(C(c3nnnn3Cc3ccccc3)N3CCOCC3)c(=O)c2c1 (configuration not stated),inactive: 14.7%
14,CCC(=O)N1CCN(c2ccccc2NC(=O)c2ccc([N+](=O)[O-])o2)CC1,inactive: 21.6%
15,COc1ccccc1/C=C/C(=O)OCCN1CCOCC1,inactive: 22.9%
16,CCOc1ccc(CCNC(=O)c2nnc(CS(=O)(=O)c3ccccc3)o2)cc1OCC,inactive: -8.33%
17,CCOCCCNC(=O)c1ccc(N2CCCC2)c(NS(=O)(=O)c2ccc(C)cc2)c1,inactive: 3.49%
18,CCc1ccc(C(=O)NC(CCSC)C(=O)O)cc1 (configuration not stated),inactive: 7.57%
19,COc1ccc(C(=O)C2CCN(CC(=O)Nc3cc(C)cc(C)c3)CC2)cc1,inactive: -19.5%
20,CCOc1ccc(-n2c(C)cc(/C=N\NC(=O)CC(=O)NC3CCCCC3)c2C)cc1,inactive: 22.3%
21,Cc1cc(NS(=O)(=O)c2ccc(NC(=O)/C=C/c3ccc(Br)cc3)cc2)no1,inactive: 16.3%
22,CC(C)c1cc(NC(=O)c2ccccc2)cc(C(C)C)c1O,inactive: 9.82%

row,SMILES,growth rescue (activation)
1,CSc1ccc(CN2CCN(C(=O)c3ccncc3)CC2)cc1,inactive: -26.7%
2,Cc1cc(C)n(/C(=C\N(C)C)C(=O)c2ccc(Cl)cc2)n1,inactive: 10.4%
3,Cc1ccc(CN2CCCC2(C)C(=O)NC(C)C)cc1 (configuration not stated),inactive: 6.2%
4,O=C(Nc1ccc2nc3ccccc3nc2c1)c1ccccc1,inactive: -20.7%
5,CCCn1c(SCC(=O)C(C)(C)C)nc2ccccc21,inactive: -1.83%
6,CN(Cc1cnccn1)C(=O)CC1C(=O)NCCN1CC(c1ccccc1)c1ccccc1 (configuration not stated),inactive: -7.42%
7,CCOC(=O)c1ccc(NC(=S)NCc2cccnc2)cc1,inactive: 5.84%
8,Cc1cccc2c(N=NC(=O)C(C)n3cnc4ccccc4c3=O)c(O)[nH]c12 (configuration not stated),inactive: -31.4%
9,CCCCN=C1NN=C(c2ccc3c(c2)OCCO3)CS1,inactive: 26.1%
10,COc1ccc(S(=O)(=O)NC(Cc2cnc[nH]2)C(=O)O)cc1 (configuration not stated),inactive: -1.89%
11,CC(=O)Nc1ccc(NC(=O)C2CC(=O)N(Cc3ccccc3)C2)cc1 (configuration not stated),inactive: 11.8%
12,O=C(O)c1cccc(Nc2cc(Cl)c3nonc3c2[N+](=O)[O-])c1,inactive: -17.1%
13,O=C(NCc1cc(Cl)cc(Cl)c1)c1csc(COCCO)n1,inactive: 12.6%
14,Cc1ccc(C(=O)CC2C(=O)N(c3ccccc3)C(=S)N2c2ccccc2)cc1 (configuration not stated),inactive: -11.4%
15,CCOC(=O)CCC(NC(=O)c1ccccc1C(=O)NC(CCC(=O)OCC)C(=O)OCC)C(=O)OCC (configuration not stated),inactive: 0.477%
16,Cc1ccc(OCCCCN(C)Cc2ccccc2)c(Br)c1,inactive: -18%
17,Cc1ccc(NC(=O)COC(=O)[C@H](C)NC(N)=O)c(C)c1,inactive: -7.74%
18,Cc1ccn(-c2ccc(NC(=O)c3cccs3)cc2)n1,inactive: -36.1%
19,CCCCNC(=O)c1ccc2nc(CC)c(N(C)Cc3cccs3)n2c1,inactive: 8.68%
20,O=C(COc1cccc(Br)c1)N/N=C/C(=O)c1ccccc1,inactive: 8.11%
21,COc1ccccc1NC(=O)c1sc2ncn(Cc3cccc4ccccc34)c(=O)c2c1C,inactive: -15.2%
22,O=C(Nc1nc2ccccc2[nH]1)c1cccc(Br)c1,inactive: 3.65%

row,SMILES,growth rescue (activation)
1,O=C(NC(C(=O)N/N=C/c1cccnc1)c1n[nH]c(=O)c2ccccc12)c1ccccc1 (configuration not stated),inactive: 13%
2,O=C(NC1CCN(Cc2ccccc2)CC1)c1cc(S(=O)(=O)Nc2ccc(F)cc2)ccc1Cl,inactive: -3.06%
3,O=C(O)CCCn1cc(NC(=O)COc2cc(F)ccc2[N+](=O)[O-])cn1,inactive: -1.24%
4,O=C(OCc1nc2scc(-c3ccccc3)c2c(=O)[nH]1)c1cc(Cl)ccc1[N+](=O)[O-],inactive: 10.2%
5,CC1CN(c2nc3ccccc3nc2C(C#N)C(=O)NCc2ccc3c(c2)OCO3)CC(C)O1 (configuration not stated),inactive: -13.2%
6,CC(=O)Nc1ccc(NC(=O)C/C(C)=N/NC(=O)C(=O)Nc2ccc(C)c(Cl)c2)cc1,inactive: -7.22%
7,CN(C)CCCOc1ccc(-c2cccc3nncn23)cn1,inactive: -0.0634%
8,CCN1/C(=C/C=C2/SC(=Nc3cccc4ncccc34)N(C)C2=O)Sc2ccccc21,inactive: 13.3%
9,Cc1cc(CN(C)C(=O)CC2C(=O)NCCN2Cc2ccc(F)c(F)c2)on1 (configuration not stated),inactive: 1.92%
10,NC(=O)CSc1nnc(CSc2ncccn2)n1-c1ccccc1,inactive: 8.34%
11,NC(=O)c1nsc(C(=O)N(c2ccccc2)C(C(=O)NCC2CCCO2)c2cccs2)c1N (configuration not stated),inactive: 9.03%
12,COc1ccc(N(CC(=O)NC2CC3CCC2C3)S(=O)(=O)c2ccccc2)cc1Cl (configuration not stated),inactive: 8.12%
13,COc1ccc(NC(=O)C(NC(=O)c2ccc(=O)[nH]c2)c2ccc(C)cc2)cc1 (configuration not stated),inactive: 0.463%
14,O=C(CCS(=O)(=O)c1ccccc1)Nc1nncs1,inactive: 6.65%
15,CC(=O)Nc1ccc2nc(SCC(=O)NCCOc3ccccc3)sc2c1,inactive: 1.03%
16,O=C(NCc1ccc(F)c(F)c1)C1CCC(=O)N(CC2CCCCC2)C1 (configuration not stated),inactive: 6.2%
17,C/C(=N\Nc1ccc([N+](=O)[O-])cc1)c1ccc(O)cc1,inactive: 2.51%
18,COc1ccc(CCN(C)C(=O)CNC(=O)c2ccccc2F)cc1OC,inactive: -21%
19,CC(C)(C)C(=O)Nc1ccc(C(=O)N/N=C/c2ccccc2OC(=O)c2ccccc2)cc1,inactive: 1.03%
20,O=C(CN1C(=O)NC2(CCCC2)C1=O)Nc1ccccc1,inactive: 10.1%
21,Cc1cccc(C)c1NC(=O)NC1(C(=O)NCc2ccncc2)CCCCC1,inactive: 11.9%
22,CC(=O)c1cccc(-c2cnc3c(NC=O)cc(-c4ccccc4Oc4ccccc4)cn23)c1,inactive: 19.7%

row,SMILES,growth rescue (activation)
1,CCNc1ccc(C(=O)OCC(=O)NCc2ccc(C)cc2)cc1[N+](=O)[O-],inactive: -19.4%
2,Cc1cc(=O)[nH]c(N/N=C/c2c(C)nn(-c3ccccc3)c2Cl)n1,inactive: 1.09%
3,CC(Sc1cccc[n+]1[O-])C(=O)Nc1cc(Cl)c(Cl)cc1Cl (configuration not stated),inactive: 7.14%
4,COc1cccc(NC(=O)[C@H](C)NC(=O)C2CCN(S(=O)(=O)c3ccc(C)cc3)CC2)c1,inactive: 15.1%
5,CCOc1cc(CNc2cccc3[nH]c(C)nc23)ccc1OC,inactive: 10.8%
6,CCOc1ccc(CN2CCNC(=O)C2CC(=O)NCc2csc(C)n2)cc1 (configuration not stated),inactive: -18.3%
7,O=C(CNC(=O)c1cccc(OC(F)F)c1)OCn1nnc2ccccc2c1=O,inactive: 5.25%
8,Cc1cc(C)c(C)c(S(=O)(=O)N2CCN(C)CC2)c1C,inactive: -1.39%
9,COc1ccc(CC(=O)Nc2ccc3nc(SC)sc3c2)cc1OC,inactive: 16.1%
10,O=C(Cn1cnnn1)NCCc1ccc(Cl)cc1Cl,inactive: 10.7%
11,O=C(CC1C(=O)NCCN1Cc1c(F)cccc1Cl)NCCCn1ccnc1 (configuration not stated),inactive: 9.03%
12,O=C(CCSc1nnc2ccccn12)Nc1ccc2c(c1)OCO2,inactive: 3.66%
13,CC(C)N(c1ccccc1)c1ccc(NC(=O)[C@@H]2O[C@H](CO)[C@H](O)[C@H](O)[C@H]2O)cc1,inactive: -3.2%
14,CCCc1cc(C(=O)Nc2ccc(F)c(Cl)c2)no1,inactive: 3.39%
15,Cn1c(CNC(=O)c2ccco2)nnc1SCC(=O)N1CCN(c2ccccc2F)CC1,inactive: -6.25%
16,Cc1ccc(NC(=O)CN(C)C(=O)Cc2ccccc2F)cc1,inactive: 20.3%
17,COc1ccc(-c2noc(CCC(=O)NC3CCCC3)n2)cc1,inactive: 16.8%
18,CCOC(=O)N1CCC(NC(=O)c2cc(COc3ccc(F)cc3Cl)on2)CC1,inactive: 10.9%
19,Cn1c(SCC(=O)Nc2ccc(NC(=O)c3cccc(F)c3)cc2)nnc1-c1ccncc1,inactive: 12%
20,O=C(O)CN1CCN(c2ncc(C(F)(F)F)cc2Cl)CC1,inactive: -0.177%
21,COc1ccc(/C=N/NC(=O)c2ccc(CSc3nc(C)cc(C)n3)cc2)c(OC)c1OC,inactive: 17.3%
22,OCCC1CN(Cc2ccn[nH]2)CCN1Cc1ccc(F)c(F)c1 (configuration not stated),inactive: 9.62%

row,SMILES,growth rescue (activation)
1,CCC1=NNC(=O)C(CC(=O)Nc2ccccc2)c2cc(OC)c(OC)cc21 (configuration not stated),inactive: -1.42%
2,Cc1ccc(F)cc1NC(=O)c1cnccn1,inactive: 13.2%
3,CNc1ncc(C(=O)c2ccc(Br)cc2)s1,inactive: 12%
4,Cc1ccc(OCc2nnc(SC(C)C(=O)O)n2-c2ccccc2)cc1 (configuration not stated),inactive: 4.43%
5,CCC(C)CN1CCC(CO)(Cc2ccccc2Cl)CC1 (configuration not stated),inactive: 6.45%
6,Cc1nnc(SCC(=O)NCC2CCCCC2)n(N)c1=O,inactive: 0.216%
7,Cc1nc2ccccc2c(=O)n1/N=C/c1c(O)ccc2ccccc12,inactive: -15.5%
8,COc1ccccc1/C=C/C(=O)NCC(=O)N/N=C(/C)c1ccco1,inactive: 8.91%
9,Cc1ccc(/C=C/C(=O)NCc2cccs2)c(C)c1,inactive: 6.9%
10,O=C(CSc1ncnc2[nH]ncc12)Nc1cccc(Oc2ccccc2)c1,inactive: 9.49%
11,COc1ccccc1NC(=O)COC(=O)C1CC1,inactive: 9.62%
12,Cc1ccc(NC2CCCN(C(=O)CSc3ccccn3)C2)cc1C (configuration not stated),inactive: -2.71%
13,COc1ccc(CCNC(=O)COC(=O)C2CC2)cc1,inactive: 10.7%
14,COc1cccc(C(C(=O)NC2CCCC2)N(CC2CCCO2)C(=O)Cc2cccs2)c1 (configuration not stated),inactive: 17.3%
15,COc1ccc(S(=O)(=O)N2CCCCCC2)cc1NC(=O)c1ccccc1S(C)(=O)=O,inactive: 18.8%
16,O=C(Nc1ccc2ccccc2c1)c1ccccc1O,inactive: 10.7%
17,CC[n+]1c(/C=C/c2c[nH]c3ccccc23)ccc2cc(C)ccc21,inactive: -15.7%
18,CC(C)C(=O)N1CCN(c2ccc(NC(=O)COc3ccccc3[N+](=O)[O-])cc2)CC1,inactive: -5.09%
19,CCN(CC)C(=O)C1CCCN(c2ccccc2[N+](=O)[O-])C1 (configuration not stated),inactive: 2.83%
